Measurements from the supplement of paper PMC4604168 (melanoma cell lines).
The other results are listed elsewhere or left out. Most values come without repeats; read them as rough.

The molecules below were run on LB2518-MEL (assay: cell count relative to DMSO control; melanoma cells; higher = more viable cells). Conditions: library dose: low library concentration; 72 h.
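Further: cell number obtained by counting DAPI-stained nuclei in high-throughput microscope images with image analysis software, screen run in 1,536-well plates.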

Compound | cell count [%]
Cc1cc(Nc2cc(N3CCN(C)CC3)nc(/C=C/c3ccccc3)n2)n[nH]1 + COc1ccc(Cl)c(Nc2nc3ccccc3nc2NS(=O)(=O)c2cccc(NC(=O)C(C)(C)N)c2)c1 [XL147] (first compound 0.04 µM, partner dose 0.8 µM) | 96
COc1ccc(C2=N[C@@H](c3ccc(Cl)cc3)[C@@H](c3ccc(Cl)cc3)N2C(=O)N2CCNC(=O)C2)c(OC(C)C)c1 [Nutlin-3] + NC1(c2ccc(-c3nc4ccn5c(=O)[nH]nc5c4cc3-c3ccccc3)cc2)CCC1 [MK2206] (first compound 0.1 µM, partner dose 0.4 µM) | 87.2
CC(C)C[C@H](NC(=O)[C@H](Cc1ccccc1)NC(=O)c1cnccn1)B(O)O [Bortezomib] + CS(=O)(=O)CCNCc1ccc(-c2ccc3ncnc(Nc4ccc(OCc5cccc(F)c5)c(Cl)c4)c3c2)o1 [lapatinib] (first compound 0.001 µM, partner dose 0.8 µM) | 49.3
CC(C)C[C@H](NC(=O)[C@H](Cc1ccccc1)NC(=O)c1cnccn1)B(O)O [Bortezomib] + C[C@]1(c2nc3c(C(N)=O)cccc3[nH]2)CCCN1 [Veliparib] (first compound 0.001 µM, partner dose 1.4 µM) | 45.9
Cc1cc(Nc2cc(N3CCN(C)CC3)nc(/C=C/c3ccccc3)n2)n[nH]1 + COCC[n+]1c2c(n(Cc3cnccn3)c1C)C(=O)c1ccccc1C2=O [YM155] (first compound 0.04 µM, partner dose 0.0004 µM) | 94.1
Cc1cn(-c2cc(NC(=O)c3ccc(C)c(Nc4nccc(-c5cccnc5)n4)c3)cc(C(F)(F)F)c2)cn1 [nilotinib] + CC(C)C[C@H](NC(=O)[C@H](Cc1ccccc1)NC(=O)c1cnccn1)B(O)O [Bortezomib] (first compound 0.2 µM, partner dose 0.001 µM) | 85.4
Cn1c(=O)n(-c2ccc(C(C)(C)C#N)cc2)c2c3cc(-c4cnc5ccccc5c4)ccc3ncc21 + CN1CCN(c2ccc3nc(-c4c(N)c5c(F)cccc5[nH]c4=O)[nH]c3c2)CC1 [Dovitinib] (first compound 0.004 µM, partner dose 0.1 µM) | 94.1
CC(C)C[C@H](NC(=O)[C@H](Cc1ccccc1)NC(=O)c1cnccn1)B(O)O [Bortezomib] + CCCS(=O)(=O)Nc1ccc(F)c(C(=O)c2c[nH]c3ncc(Cl)cc23)c1F [PLX4720] (first compound 0.001 µM, partner dose 0.08 µM) | 24.6
Cc1cn(-c2cc(NC(=O)c3ccc(C)c(Nc4nccc(-c5cccnc5)n4)c3)cc(C(F)(F)F)c2)cn1 [nilotinib] + OCc1c[nH]c2ccccc12 [Indole-3-carbinol] (first compound 0.2 µM, partner dose 0.8 µM) | 96.4
CC(C)C[C@H](NC(=O)[C@H](Cc1ccccc1)NC(=O)c1cnccn1)B(O)O [Bortezomib] + Cn1c(Nc2ccc(C(F)(F)F)cc2)nc2cc(Oc3ccnc(-c4ncc(C(F)(F)F)[nH]4)c3)ccc21 [CHIR265] (first compound 0.001 µM, partner dose 0.08 µM) | 31.9
Cc1cc(Nc2cc(N3CCN(C)CC3)nc(/C=C/c3ccccc3)n2)n[nH]1 + Cn1nnc2c(C(N)=O)ncn2c1=O [temozolomide] (first compound 0.04 µM, partner dose 2 µM) | 86.3
Cc1cn(-c2cc(NC(=O)c3ccc(C)c(Nc4nccc(-c5cccnc5)n4)c3)cc(C(F)(F)F)c2)cn1 [nilotinib] + Cn1nnc2c(C(N)=O)ncn2c1=O [temozolomide] (first compound 0.2 µM, partner dose 2 µM) | 105
